PMC4336329 (PLoS ONE, 2015)
The whole screen tested about 310,000 compounds, of which about 2,200 (0.71%) showed an effect of 50% or more. Effects have a minus sign here. The list shows a part of the results.

target: human ether-à-go-go-related gene (hERG) potassium channel (human, UniProt Q12809); test: primary screen, population patch clamp on CHO cells stably expressing hERG
Sequence (Q12809 whole entry, looked up): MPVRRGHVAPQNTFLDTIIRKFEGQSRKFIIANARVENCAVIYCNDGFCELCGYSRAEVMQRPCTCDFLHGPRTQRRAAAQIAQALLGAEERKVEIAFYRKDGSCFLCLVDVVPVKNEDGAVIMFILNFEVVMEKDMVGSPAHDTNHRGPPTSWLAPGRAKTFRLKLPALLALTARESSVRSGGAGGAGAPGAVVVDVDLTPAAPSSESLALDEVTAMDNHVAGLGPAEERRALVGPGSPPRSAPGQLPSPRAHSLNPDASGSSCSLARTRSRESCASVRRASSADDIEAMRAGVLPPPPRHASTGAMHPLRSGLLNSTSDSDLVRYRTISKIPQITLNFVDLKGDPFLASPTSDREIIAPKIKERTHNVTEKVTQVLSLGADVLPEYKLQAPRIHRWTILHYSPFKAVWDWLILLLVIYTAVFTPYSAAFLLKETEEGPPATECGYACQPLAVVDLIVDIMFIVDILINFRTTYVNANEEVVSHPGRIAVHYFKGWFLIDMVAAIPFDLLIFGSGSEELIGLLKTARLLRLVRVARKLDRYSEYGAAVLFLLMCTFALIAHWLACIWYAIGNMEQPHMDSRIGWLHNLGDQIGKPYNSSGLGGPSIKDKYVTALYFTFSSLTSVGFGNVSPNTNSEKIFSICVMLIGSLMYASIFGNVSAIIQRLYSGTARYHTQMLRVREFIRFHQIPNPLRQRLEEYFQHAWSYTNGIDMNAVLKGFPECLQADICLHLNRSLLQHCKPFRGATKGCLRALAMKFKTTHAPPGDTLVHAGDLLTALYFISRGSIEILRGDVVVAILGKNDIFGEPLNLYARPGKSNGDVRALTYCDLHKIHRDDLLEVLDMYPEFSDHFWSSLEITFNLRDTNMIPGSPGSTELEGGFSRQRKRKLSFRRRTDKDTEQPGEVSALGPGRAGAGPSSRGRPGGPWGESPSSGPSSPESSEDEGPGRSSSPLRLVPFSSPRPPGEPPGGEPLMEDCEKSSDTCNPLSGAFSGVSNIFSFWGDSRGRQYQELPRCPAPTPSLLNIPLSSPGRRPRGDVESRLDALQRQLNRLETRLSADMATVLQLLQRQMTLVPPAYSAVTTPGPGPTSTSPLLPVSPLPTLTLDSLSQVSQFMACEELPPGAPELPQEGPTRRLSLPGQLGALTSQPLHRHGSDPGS

| SMILES | hERG current change (%, negative = inhibition) at 1uM [%] |
| --- | --- |
| CC1CC(=O)Nc2ccccc2N1S(=O)(=O)c1ccc(Cl)cc1 (stereo not shown) | 14.5 |
| COC(=O)C1C(O)=C(C=NCc2ccccc2)C(=O)CC1(C)C (stereo not shown) | -0.0891 |
| CS(=O)(=O)c1ccc(Cl)c(NC(=O)COC(=O)c2c(Cl)cccc2Cl)c1 | 6.65 |
| CCC(=O)N/C(=N/c1nc(C)cc(C)n1)Nc1ccccc1 | 8.14 |
| O=c1[nH]c2ccccc2n1C1=CCCC1 | -5.82 |
| COc1ccccc1NC(=S)NC1CCC(CC2CCC(NC(=S)Nc3ccccc3OC)CC2)CC1 (stereo not shown) | 10.5 |
| Cc1ccc(NC(=O)NC(=O)CSc2n[nH]c(N)n2)c(C)c1 | 13.9 |
| CCOC(=O)N1CCN(C(=O)NC23CC4CC(CC(C4)C2)C3)CC1 | 3.33 |
| COc1ccc(-c2noc(-c3cc(C)cc(C)c3)n2)cc1OC | 15.7 |
| CC(C)(C)NC(=O)CN(C(=O)c1csnn1)c1ccccc1-c1ccccc1 | 9.62 |
| CN(C)c1ccc(C(=O)NN2C(=O)c3ccccc3C2=O)cc1 | 25 |
| Cn1c(=O)c2cc(S(=O)(=O)NC(C(=O)N3CCCCCC3)c3ccccc3)ccc2n(C)c1=O (stereo not shown) | 5.17 |
| COc1ccc(Cc2nnc3sc(SCC(=O)Nc4ccccc4)nn3c2=O)cc1OC | 2.91 |
| O=C(CSc1ncnc2[nH]ncc12)Nc1cccc(Oc2ccccc2)c1 | -0.655 |
| CC[C@@H]1C(=O)OC[C@@H]1Cc1cncn1C.O=[N+]([O-])O | 9.36 |
| COC(=O)C1CCN(Cc2ccc(OCCCN3CCN(c4ccc([N+](=O)[O-])cc4)CC3)cc2)CC1 | 1.13 |
| CNC(=S)N1CCN(C(=O)C2CCCO2)CC1 (stereo not shown) | 10.5 |
| CC(C)C(C)NC(=O)COc1ccc(Sc2ccc(OCC(=O)NC(C)C(C)C)cc2)cc1 (stereo not shown) | -10.1 |
| Cc1ccc(N2CC(C(=O)N3CCc4ccccc4C3)CC2=O)cc1 (stereo not shown) | -17.7 |
| O=C(NCCO)c1cc2c(s1)CCC2 | 7.67 |
| COc1ccc(OC)c(Nc2ncnc3c2cnn3-c2ccccc2)c1 | 9.51 |
| COc1ccc(-c2cc(C(F)F)n3ncc(C(=O)N4CCc5ccccc5C4)c3n2)cc1 | 12 |

| SMILES | hERG current change (%, negative = inhibition) at 1uM [%] |
| --- | --- |
| CC(NC(=O)c1cc2ccccc2o1)c1ccccc1 (stereo not shown) | 17.2 |
| CC1=C(C#N)C(/C=N/OCc2ccc(Cl)cc2)CC(=O)N1 (stereo not shown) | -3.7 |
| CN1C(=O)/C(=C/c2ccc(OCc3ccc(C(=O)O)cc3)c(Cl)c2)NC1=S | 16.6 |
| COc1ccc(CN2C(=O)CS(=O)CC2=O)cc1OC | 12.2 |
| Cc1ccc2c(SCC(=O)NCc3ccco3)nc(-c3ccc(F)cc3)nc2c1 | -0.816 |
| COc1cc(CC(=O)OCC(=O)N2CC(=O)Nc3ccccc32)cc(OC)c1OC | 2.52 |
| CCOC(=O)[C@H]1[C@H]2COc3cc(OC)ccc3[C@@H]2N2C(=O)c3cc(OC)c(OC)cc3NC(=O)[C@@]12C | 10.7 |
| CCC(Sc1nncn1C)C(=O)Nc1nnc(-c2ccccc2Cl)s1 (stereo not shown) | 7.21 |
| O=C(CC1CCCC1)NCCc1cn2ccccc2n1 | 8.21 |
| Cc1csc(NC(=O)CCC(=O)N(CC(=O)NC2CCCC2)Cc2ccccc2)n1 | -5.1 |
| N#Cc1c2c(c[nH]c1=O)CCN2Cc1ccccc1 | 10.8 |
| CCCCN(CC)c1nc(N)c(C#N)c(CC#N)c1C#N | -8.11 |
| CN1CCN(C(=O)c2cnn3c(C(F)(F)F)cc(-c4ccc5c(c4)OCO5)nc23)CC1 | -0.295 |
| Cc1cc(C(=O)NC2CCCc3ccccc32)ccc1[N+](=O)[O-] (stereo not shown) | 11.9 |
| O=C(O)COc1cccc(NC(=O)C2CCCO2)c1 (stereo not shown) | 14.7 |
| COc1cc(C(=O)O)c2ccccc2n1 | 11.5 |
| Cc1cc(NC(=O)CSc2nc3ccccc3c(=O)n2C2CCCC2)no1 | 5.97 |
| O=C(Cc1noc2ccccc12)Nc1ccccn1 | 8.9 |
| O=C(OCC(=O)c1ccc(Cl)cc1Cl)c1ccc2c(c1)C(=O)N(c1cccc3ncccc13)C2=O | 1.87 |
| Cc1ccc(C(=O)Cn2cnc3ccccc3c2=O)cc1C | 10.3 |
| COc1ccc(OC)c(N2C(=O)NC(=O)C(CCc3ccncc3)(CCc3ccncc3)C2=O)c1 | -0.534 |
| Cc1ccc2[nH]c3c(=O)n4c(nc3c2c1)SCC4 | 10.8 |

| SMILES | hERG current change (%, negative = inhibition) at 1uM [%] |
| --- | --- |
| COc1cccc(NC(=O)Cn2c3ccc(OC)cc3c3nc4n(c(=O)c32)CCS4)c1 | 16.8 |
| Cc1ccc(C(=O)NC(=C(Cl)Cl)S(=O)(=O)c2ccccc2)cc1 | 16.1 |
| NC(N)=NS(=O)(=O)c1ccc(NC(=S)NC(=O)/C=C/c2cccs2)cc1 | 6.62 |
| CCOC(=O)c1cnn(-c2nc(CC)nc3sc4c(c23)CCC4)c1N | 1.45 |
| Cc1cc2ccccn2c1C(C[N+](=O)[O-])c1ccc(N(C)C)cc1 (stereo not shown) | 2.6 |
| NC(=O)NC(=O)COC(=O)[C@H](Cc1ccccc1)NC(=O)c1cccs1 | -1.29 |
| COc1ccc(C(=O)C2CCCN(C3CSCCSC3)C2)c(C)c1 (stereo not shown) | -11.2 |
| CC(=O)Nc1ccc(NC(=O)CCCCCN2C(=O)c3ccccc3C2=O)cc1 | 3.78 |
| S=C1NC2(CCCCC2)NN1c1ccccc1 | 10.7 |
| O=C(CSc1ncccn1)N/N=C/c1cccs1 | 8.74 |
| COC(=O)c1[nH]c(C)c(/C(O)=C2\C(=O)C(=O)N(CCN(C)C)C2c2cccc(OC)c2OC)c1C (stereo not shown) | 5.05 |
| COc1cc(Cc2[nH+]ccc3cc(OC)c(OC)cc23)c(S(=O)(=O)[O-])cc1OC | 11.6 |
| CCOC(=O)C1CCCN(C(=O)c2ccc(CS(=O)(=O)c3ccc(Br)cc3)o2)C1 (stereo not shown) | -12.8 |
| COc1ccccc1N1CCN(C(=O)c2cc3cc(Cl)ccc3[nH]2)CC1 | 7.13 |
| CC1(C)C(=O)OC(c2c3ccccc3cc3ccccc23)C(C)(C)C1=O (stereo not shown) | 0.485 |
| CN1CCN(CCCNC(=O)c2ccc(CS(=O)(=O)c3ccc(Br)cc3)o2)CC1 | 2.98 |
| CN(C)N1C(N)=C(C#N)C(c2cccnc2)C2=C1CCCC2=O (stereo not shown) | 7.23 |
| CC(Oc1cccc(Br)c1)C(=O)N1CCCN(C)CC1 (stereo not shown) | 5.81 |
| COc1ccc(S(=O)(=O)N2CCCOC2CNC(=O)C(=O)NCc2ccccc2F)cc1C (stereo not shown) | 16 |
| COc1ccc(COC[C@H](C)[C@H](O)[C@@H](C)[C@H]2OC(=O)[C@@H]2C)cc1 | 17.6 |
| CCN(CC)CCN(CC(=O)N(C1CCCCC1)C1CCCCC1)C(=O)c1cccnc1.Cl.O | -24.7 |
| O=C(NC1CCN(C(=O)Nc2cccc(F)c2)CC1)c1ccco1 | 6.49 |

| SMILES | hERG current change (%, negative = inhibition) at 1uM [%] |
| --- | --- |
| Cc1nc2sc(C)c(C)c2c(=O)[nH]1 | 8.79 |
| CC(C)(C)c1ccc(CN(Cc2ccco2)Cc2nnnn2C2CCCC2)cc1 | 13.8 |
| COc1ccc(NC(=O)/C=C/c2cccc(Br)c2)cn1 | 5.56 |
| CCC(=O)Nc1ccc(N2CCCCC2)cc1 | 15.3 |
| COC(=O)COc1c(/C=C\c2nc(O)c([N+](=O)[O-])c(=O)[nH]2)cccc1OC | 10.4 |
| COc1nccnc1NS(=O)(=O)c1ccc(NCc2cc(Br)ccc2O)cc1 | 6.54 |
| O=C(CSc1ccccc1)NNC(=O)c1ccccc1O | 18.6 |
| Nc1cccc(/C=C/C(=O)O)c1 | 14.2 |
| CCN(CC(=O)NC1CCS(=O)(=O)C1)S(=O)(=O)c1ccc(F)cc1 (stereo not shown) | 19.3 |
| O=C(CCn1c(=S)[nH]c2ccccc2c1=O)NCCc1ccc(Cl)cc1 | 4.31 |
| O=C(Nc1ccc([N+](=O)[O-])cc1)Nc1ccc(N2CCOCC2)c2nonc12 | 6.63 |
| O=C(Nc1ccc(F)cc1F)c1cc2ccccc2oc1=O | 5.3 |
| Cc1cc[n+](CC(=O)N2CCCc3ccccc32)cc1.[Cl-] | 22.2 |
| COc1ccc(/C=C/C(=O)N(CC(C)C)CC(C)C)cc1Br | 0.531 |
| N#C/C(C(=O)N1CCCCC1)=C1/N=C(NC(=O)c2ccc(F)cc2)c2ccccc21 | 16.7 |
| CCN(CC)S(=O)(=O)c1cccc(NC(=O)C2CC(=O)N(c3ccc4c(c3)OCCO4)C2)c1 (stereo not shown) | 1.35 |
| CN1CCN(C(=O)/C(=C/c2ccccc2)c2ccccc2)CC1 | -33.2 |
| O=C(CNC(=O)c1ccc(Br)o1)NCc1ccccc1 | 11.1 |
| CCOC(=O)c1ccc(NC(=O)CSc2nnc(COc3ccccc3)n2C)cc1 | 1.7 |
| COc1ccccc1N(CC(=O)NCCSCc1ccco1)S(=O)(=O)c1ccccc1 | 7.33 |
| CCCCCC(O)c1cccc(OCc2ccc3ccccc3n2)c1 (stereo not shown) | 12.6 |
| COc1ccc(CC(=O)N2N=C(c3ccncc3)CC2(O)C(F)(F)F)cc1 (stereo not shown) | 11.7 |
